The campaign covered roughly 380,000 compounds. About 170 (0.045%) were called active. Inconclusive means that the source gave no clear call. Such entries were picked first, then a sample of the others. Calls come from the whole dose curve; as a rule, active = well fitted inhibition curve with a large enough effect; inconclusive = small, poorly fitted or top-dose-only effect; inactive = no such curve, though single readings can be large or run the other way. Potencies of inconclusive entries are left out as doubtful fits.
These molecules were tested against Phosphoglycerate kinase, glycosomal (Trypanosoma brucei brucei) (UniProt P07378) (assay: qHTS Assay to Find Inhibitors of Phosphoglycerate Kinase). Conditions: PGK/GAPDH coupled, Kinase-Glo luminescence, 60 min; series mostly up to 57.5 µM; activity change, negative = inhibition: at the top concentration.
How it was run: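 Recombinant glycosomal PGK reaction used 1,3-bisphosphoglycerate generated in-well by GAPDH (100nM final) in 100mM TEA pH 7.6, 5mM MgCl2, 0.01% Tween-20. After 60 minutes at room temperature, ATP was read by Kinase-Glo Plus luminescence end-point.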
% is set by controls: 0 for no effect and ±100 for the full control effect; potency is the fitted concentration of half-maximal effect; tags give direction and shape of the fitted curve.
Note: nearly all actives have a fitted effect of over 60% in size.

Compound	Potency	activity change, negative = inhibition	outcome
Cc1ccc2nc(-c3ccccc3)nn2c1	inconclusive [inhibitor, partial curve, poor fit]	–	–
CC(=NO)c1ccc2c(c1)Cc1cc([N+](=O)[O-])ccc1-2	–	inactive: 10.5%	–
COc1ccc(Cn2c(/C=C/c3ccccc3)nc3ccccc32)cc1	inconclusive [inhibitor, partial curve, poor fit]	–	–
C=CCNC(=O)c1ccc2c3n(nc2c1)-c1ccccc1CO3	inconclusive [inhibitor, partial curve]	–	–
CCOc1ccc(NC(=O)c2ccc(NC(=O)COC(=O)c3ccc(NC(=O)CC#N)cc3)cc2)cc1	inconclusive [inhibitor, full curve]	–	–
O=C(COC(=O)c1c2c(nc3ccccc13)/C(=C/c1ccco1)CC2)NC1CCCC1	–	inactive: -15.9%	–
CCc1ccccc1N1CC23C=CC(O2)C(C(=O)OC)C3C1=O (configuration not stated)	inconclusive [inhibitor, single point]	–	–
O=C(N/N=C/c1ccc(-c2cccc([N+](=O)[O-])c2)o1)c1cccs1	–	inactive: 3.65%	–
Cn1c(NC(=O)c2ccc(F)cc2)nc2ccccc21	–	inactive: -12.3%	–
CCCCn1c(SCC(N)=O)nc2sc3c(c2c1=O)CCC3	–	inactive: -5.39%	–
Cc1ccc(Cn2c(SCC(=O)NCc3ccccc3Cl)nc3ccsc3c2=O)cc1	–	inactive: -0.82%	–
C/C(=N/NC(N)=S)c1cc2ccc(O)cc2oc1=O	inconclusive [inhibitor, partial curve, poor fit]	–	–
Cc1cc(NC(=O)CSc2cn(CCNC(=O)c3ccccc3)c3ccccc23)no1	active: 7.08 µM	–	–
O=C(Nc1ccc(Cl)c(Cl)c1)Nc1ccc(N2CCCC2)c(S(=O)(=O)Nc2ccccc2Cl)c1	–	inactive: 4.02%	–
COc1ccc(N/C=C/C(=O)c2ccccc2)cc1	inconclusive [inhibitor, partial curve, poor fit]	–	–
Cc1ccccc1C(=O)O/N=C(\N)c1ccccc1	inconclusive [inhibitor, partial curve]	–	–
COc1ccc(C(=O)Nc2ccccc2C(=O)NC(Cc2ccc(O)cc2)C(=O)NNC(=O)c2ccccc2)cc1 (configuration not stated)	–	–	inactive
COc1cc(Br)cc(C=Nc2cccc(C(F)(F)F)c2)c1O	–	inactive: -2.12%	–
Fc1ccc(/C=N/Nc2nccnc2Cl)cc1	inconclusive [inhibitor, partial curve]	–	–
COc1ccc(Br)cc1/C=c1\sc2nc(-c3ccco3)nn2c1=O	inconclusive [inhibitor, partial curve, poor fit]	–	–
O=C(O)c1ccc2c(c1)C(=O)/C(=C\c1ccco1)C2=O	inconclusive [inhibitor, single point]	–	–
Cc1ccc(C(=O)O/N=C(\N)c2ccccn2)c(Cl)c1	inconclusive [inhibitor, partial curve, poor fit]	–	–
NC(=O)c1c(NC(=O)CSc2nnc(-c3ccco3)n2N)sc2c1CCCC2	inconclusive [inhibitor, partial curve, poor fit]	–	–
COc1ccc(Cc2nnc(NC(=O)Cc3cccs3)s2)cc1OC	inconclusive [inhibitor, partial curve, poor fit]	–	–

Compound	Potency	activity change, negative = inhibition	outcome
Cc1ccc(/C=C2\C(=O)ON=C2c2ccccc2)o1	–	inactive: -1.43%	–
c1ccc2[nH]c(-c3ccc4c(c3)OCO4)nc2c1	inconclusive [inhibitor, partial curve, poor fit]	–	–
COc1ccc(N2C3=C(CC4=C2CC(C)(C)CC4=O)C(=O)CC(C)(C)C3)cc1	–	inactive: -9.47%	–
CCOc1ccc(C(=O)Nc2cc(C)ccn2)cc1	inconclusive [inhibitor, partial curve]	–	–
O=C(O)C1Nc2c(O)cc(Cl)c([N+](=O)[O-])c2C2C=CCC12 (configuration not stated)	active: 4.47 µM	–	–
COc1cccc(-c2nc(N3CCC(C)CC3)c3ccccc3n2)c1O	inconclusive [inhibitor, single point]	–	–
OCC1C2c3ccccc3C(c3ccccc32)C1CO (configuration not stated)	inconclusive [inhibitor, single point]	–	–
COc1ccc(-c2csc(NC(=O)CSc3nc(C)nc4sc(C(=O)O)c(C)c34)n2)cc1	inconclusive [inhibitor, full curve]	–	–
O=C(COc1ccc(Cl)cc1)Nc1cccc(S(=O)(=O)NC2=NCCCCC2)c1	–	inactive: 1.09%	–
Cn1c(=O)oc2cc(S(=O)(=O)N3CCCC(C(=O)NCc4ccc(F)cc4)C3)ccc21 (configuration not stated)	–	inactive: 7.77%	–
O=C(NNC(=O)c1cc2cc3ccccc3nc2s1)c1cccc(Cl)c1	inconclusive [inhibitor, partial curve]	–	–
Cc1ccc(C)c(N2CCN(c3ncnc4c3cnn4-c3ccccc3)CC2)c1	inconclusive [inhibitor, single point]	–	–
O=C(Nc1ccc(OC(=O)c2ccco2)cc1)c1ccco1	inconclusive [inhibitor, partial curve, poor fit]	–	–
O=C1CC(NS(=O)(=O)c2cccnc2)CN1c1cccc(F)c1 (configuration not stated)	–	inactive: 7.14%	–
CCN1/C(=C/C(C)=C/c2sc3ccccc3[n+]2CC)Sc2ccccc21	inconclusive [inhibitor, partial curve, poor fit]	–	–
COC(=O)CCC(=O)OC1(C)C(=O)C2=COC(c3ccc(OC)cc3)=CC2=C(Br)C1=O (configuration not stated)	active: 15.8 µM	–	–
Cc1ccc(NC(=O)/C(=C\c2ccco2)NC(=O)c2ccco2)cc1	–	inactive: -0.988%	–
c1ccc(-c2noc(-c3ccc4c(c3)OCO4)n2)nc1	inconclusive [inhibitor, partial curve, poor fit]	–	–
COc1cc(/C=C2\CCc3c2nc2ccccc2c3C(=O)O)cc(OC)c1OC	inconclusive [inhibitor, partial curve]	–	–
CC(C1SC(=S)NC1=O)C1SC(=S)NC1=O (configuration not stated)	–	inactive: -13.4%	–
Cc1cc(F)ccc1NCc1ccccc1[N+](=O)[O-]	–	inactive: -2.11%	–
NC(=O)N/N=C1\c2ccccc2-c2c(C(N)=O)cccc21	–	inactive: -7.58%	–
Cc1ccc(S(=O)(=O)/N=C(/NC(=S)Nc2ccccc2)c2ccccc2)cc1	–	inactive: -5.55%	–
